Results published in PubChem BioAssay AID686971 (National Center for Advancing Translational Sciences (NCATS), 2013).
Screen size: about 360,000 compounds; about 7,500 (2.1%) were called active. Inconclusive means that the source gave no clear call. Such entries were picked first, then a sample of the others. Calls follow the shape of the dose curve; as a rule, active = well fitted cell-killing curve with a large enough effect; inconclusive = small, poorly fitted or top-dose-only effect, or effect the other way, or another doubt; inactive = no such curve, though single readings can be large or run the other way. Potencies of inconclusive entries are left out as doubtful fits.

Test: qHTS for induction of synthetic lethality in tumor cells producing 2HG: qHTS for the HT-1080-IDH1KD cell line;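 as to activity, negative = toxicity: 0% = DMSO wells and -100% = cell-free medium wells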
Settings: HT-1080 IDH1 knockdown viability, ATP luminescence, 48 h; activity, negative = toxicity: at 46.1 µM (top of the series) unless noted
How it was run: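 Knockdown cells (IDH1KD HT-1080) received compounds 2 h after plating at 750 cells/well and were kept 48 h at 37 °C in 5% FBS RPMI. A CellTiter-Glo luminescence read gave % activity for curve fitting.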
Potency is read from the fitted curve at half-maximal effect; tags tell the direction and shape of the fitted curve.

Row | Compound | Potency | activity, negative = toxicity
1 | NC(=O)c1nnn(Cc2cc(Cl)c(C(=O)c3ccc(Cl)cc3)c(Cl)c2)c1N | active: 4.11 µM | 
2 | CC(=O)N1CCc2c(sc(NC(=O)c3ccc4c(c3)OCCO4)c2C#N)C1 | active: 11.6 µM | 
3 | C[C@H](C[C@H](O)[C@H]1OC1(C)C)C1=C2C[C@H](O)C3[C@@]4(C)CCC(=O)C(C)(C)C4CC[C@]3(C)[C@@]2(C)CC1 (stereo partly specified) | inconclusive [cytotoxic, single point] | 
4 | Cc1nc2c3cc(F)ccc3n(Cc3ccccc3)c2s1 | inconclusive [cytotoxic, single point] | 
5 | c1ccc(-c2ccccc2-c2nc(-c3ccncc3)no2)cc1 | inactive | 
6 | O=c1c2ccccc2nc(SCCN2CCCCC2)n1CCc1ccccc1 | active: 14.6 µM | 
7 | CN(C)/C=N/C(=S)Nc1ccccc1F | inactive | 
8 | O=[N+]([O-])c1ccc(/C=N/Nc2nc(N3CCCCCC3)nc(N3CCCCCC3)n2)o1 | inconclusive [cytotoxic, single point] | 
9 | CCc1ccc(C2=CC(c3cc(Br)ccc3F)n3ncnc3N2)cc1 (stereo unspecified) | inactive | 
10 | COC(=O)CNC(=O)C12CC3CC(C1)CC(c1ccc(C)cc1)(C3)C2 | inactive | 
11 | COC(=O)C1=C(C(=O)OC)SC2(S1)C(C(=O)OC)=C(C(=O)OC)SC1=C2c2cccc(C)c2NC1(C)C | active: 7.08 µM | 
12 | Clc1nc(-c2ccccn2)nc2scc(-c3ccccc3)c12 | inconclusive [cytotoxic, partial curve] | 
13 | Cn1cc(CN2CCC(n3nccc3NC(=O)c3ccccc3Cl)CC2)c2ccccc21 | inconclusive [cytotoxic, single point] | 
14 | COc1ccc(-c2cc([N+](=O)[O-])ccc2OCC(=O)N(C)CC(=O)Nc2ccc(C)cc2)cc1 | inconclusive [cytotoxic, partial curve] | 
15 | C/C(N)=C(/C#N)C(=O)CSc1nnc(-c2ccccc2Br)o1 | inconclusive [cytotoxic, single point] | 
16 | CSc1nc(N)c(C#N)c(-c2ccccc2Cl)c1C#N | inconclusive [cytotoxic, single point] | 
17 | Fc1ccc(-c2nn(-c3ccccc3)cc2CNCc2ccccc2)cc1 | active: 23.1 µM | 
18 | COc1ccc(-n2nc3cc(C)c(NC(=O)c4cccnc4)cc3n2)cc1 | inconclusive [cytotoxic, single point] | 
19 | Cc1ccc(-c2[nH]ncc2/C=N/n2c(COc3ccccc3)nc3ccccc3c2=O)cc1 | inconclusive [cytotoxic, single point] | 
20 | c1ccc(CNCCC(Cc2ccccc2)c2ccco2)cc1 (stereo unspecified) | active: 16.4 µM | 
21 | Cc1cccc(N2CCN(C(=O)c3cccc(S(=O)(=O)N4CCOCC4)c3)CC2)c1C | inactive | 
22 | Cn1ncc2c(Nc3ccc(O)cc3)nc(Cl)nc21 | inconclusive [cytotoxic, partial curve] | 
23 | CCN(c1ccc(OC)cc1)S(=O)(=O)c1ccc(-c2ccc(=O)[nH]n2)o1 | inactive | 
24 | COc1cccc(/C=C/c2ccc3cccc(O)c3n2)c1 | inconclusive [cytotoxic, single point] | 

Row | Compound | Potency | activity, negative = toxicity
25 | COc1ccc(Cl)cc1-c1cc(C(=O)Nc2ccc(C(C)(C)C)cc2)[nH]n1 | inconclusive [cytotoxic, single point] | 
26 | COc1ccccc1NC(=S)NC1CCCCCCCCCCC1 | inconclusive [cytotoxic, single point] | 
27 | Cc1cc(O)c(C(C[N+](=O)[O-])c2ccc(Cl)cc2Cl)c(=O)o1 (stereo unspecified) | inconclusive [cytotoxic, single point] | 
28 | CCC1=Nc2cc(C(=O)NCc3ccco3)ccc2Sc2ccc(C)cc21 | active: 1.3 µM | 
29 | CCOc1ccc(C2c3[nH]c4ccccc4c3CCN2C(=O)Cn2cncn2)cc1 (stereo unspecified) | inconclusive [cytotoxic, partial curve] | 
30 | COc1ccc(CCC(=O)Nc2ccc(Cl)c(S(=O)(=O)N3CCCC3)c2)cc1 | inconclusive [cytotoxic, partial curve] | 
31 | C[C@@]12CCC3[C@@](CCC4[C@@]3(C)CCC[C@@]4(C)C(=O)O)(CC1=O)C2 (stereo partly specified) | inactive | 
32 | CC(C)c1ccccc1-n1c(SCC(=O)N2CCc3ccccc3C2)nc2ccccc2c1=O | inconclusive [cytotoxic, single point] | 
33 | Cc1ccnc(N/C=C(\C#N)c2nc(-c3cccc(Br)c3)cs2)c1 | inconclusive [cytotoxic, single point] | 
34 | COc1ccc2c(c1)CCc1c(C(=O)N3CCCc4ccccc43)noc1-2 | inconclusive [cytotoxic, single point] | 
35 | CCOc1ccc(C(=O)NCCC(=O)NCCCC(=O)O)cc1 | inactive | 
36 | COc1cc2c(cc1OC)C(c1ccccc1F)OC(=O)C2 (stereo unspecified) | inactive | 
37 | O=C1c2cccc3c([N+](=O)[O-])ccc(c23)C(=O)N1Cc1cccnc1 | active: 11.6 µM | 
38 | CCOCC(=O)Nc1cc([N+](=O)[O-])ccc1OC | inactive | 
39 | CC(=O)Nc1ccc(S(=O)(=O)N2CCCN(S(=O)(=O)c3ccc(C)cc3)CC2)cc1 | inconclusive [cytotoxic, single point] | 
40 | CC(C)C1C(=O)N(Cc2cn(Cc3ccco3)nn2)CCS(=O)(=O)N1Cc1ccc(-c2ccc(Cl)c(Cl)c2)cc1 (stereo unspecified) | inconclusive [cytotoxic, single point] | 
41 | CC(=O)N(Cc1ccc(F)cc1)C1=C(NCc2ccccc2)C(=O)c2ccccc2C1=O | active: 5.01 µM | 
42 | COc1ccc(C(OCC(O)CNC(C)c2ccccc2)c2ccc(OC)cc2)cc1 (stereo unspecified) | active: 20.6 µM | 
43 | Cc1ccc(-c2nnc(N3CCCCC3)c3ccccc23)cc1S(=O)(=O)NCC1CCCO1 (stereo unspecified) | inconclusive [cytotoxic, single point] | 
44 | Cc1cccc(N2CCN(C(=O)c3cccc(N4CCCC4=O)c3)CC2)c1C | inconclusive [cytotoxic, single point] | 
45 | Cc1ccc(C)c(S(=O)(=O)N2CCN(c3ncnc4sccc34)CC2)c1 | active: 4.61 µM | 
46 | CC1CC(NC(=O)Cc2ccc(Br)cc2)CC(C)(C)C1 (stereo unspecified) |  | inconclusive: -35.6% [cytotoxic]
47 | O=C(CSc1nc2ccccc2c(=O)[nH]1)c1ccc(O)cc1O | inconclusive [cytotoxic, single point] | 
48 | Cc1csc2c(=O)[nH]cnc12 | inactive | 

Row | Compound | Potency | activity, negative = toxicity
49 | CN(CCO)c1cc(Sc2nc3ccccc3s2)c2nonc2c1[N+](=O)[O-] | active: 5.01 µM | 
50 | Cc1ccc(NC(=S)Nc2cccnc2)c(S(=O)(=O)N2CCCCC2)c1 | inconclusive [cytotoxic, single point] | 
51 | c1ccc(Cc2nnc(Sc3ccccc3)c3ccccc23)cc1 | active: 11.2 µM | 
52 | C/C(=C\c1ccccc1)CN1CCN(C)CC1 | inactive | 
53 | COc1cc(-c2nc(-c3ccc(NC(=O)c4ccc(Br)o4)cc3)no2)cc(OC)c1OC | inconclusive [cytotoxic, single point] | 
54 | Cc1ccc(-c2nc3ccccc3[nH]2)cc1NC(=O)/C=C/c1ccco1 | inconclusive [cytotoxic, single point] | 
55 | Cc1ccc(C)c2[nH]c(=O)c(CN(CC3CCCO3)C(=S)NCc3ccco3)cc12 (stereo unspecified) | inconclusive [cytotoxic, partial curve] | 
56 | COC1(OC)C(/C=C/c2ccc(Cl)cc2)C(C#N)(C#N)C1(OC)OC (stereo unspecified) | active: 20.6 µM | 
57 | CN(C)S(=O)(=O)c1ccc(N2C(=O)CC2(/C=C/c2ccccc2)C(=O)NC2CCCC2)cc1 (stereo unspecified) | inactive | 
58 | O=C(NNC1=C(C(=O)C(F)(F)F)CCC1)c1ccccc1Cl | inconclusive [cytotoxic, single point] | 
59 | CCc1nc2ccc(C(=O)NCc3cccs3)cn2c1N(CCC(C)C)CCN(C)C | inconclusive [cytotoxic, single point] | 
60 | CCCC(c1c(C)n(C)n(-c2ccccc2)c1=O)c1c(C)n(C)n(-c2ccccc2)c1=O | inconclusive [cytotoxic, single point] | 
61 | CCOC(=O)C1=CN(Cc2cccc(F)c2)S(=O)(=O)N(CC)C1c1ccc(F)c(Cl)c1 (stereo unspecified) | inactive | 
62 | O=C(Nc1nc([C@@H]2O[C@H](CO)[C@@H](O)[C@H](O)[C@H]2O)cs1)NC(c1ccccc1)c1ccccc1 | inactive | 
63 | O=C(NN=C(Cc1ccccc1)Cc1ccccc1)C1CC1 | inactive | 
64 | O=C(CNS(=O)(=O)c1ccc(Cl)c(C(F)(F)F)c1)NC1CCCCCC1 | inactive | 
65 | CC(C)CC(C(=O)OCC(=O)N1CCN(c2ccccc2)CC1)N1C(=O)c2ccccc2C1=O (stereo unspecified) | inactive | 
66 | CSc1ccc(CN2CCN(C(=O)c3ccc([N+](=O)[O-])cc3)CC2)cc1 | inconclusive [cytotoxic, partial curve] | 
67 | O=C(Nc1ccc(Cl)cn1)c1cccc2ccccc12 | active: 11.6 µM | 
68 | Cc1ccc(NS(=O)(=O)c2cccc(C(=O)O)c2)c(C)c1 | inconclusive [rising, single point] | 
69 | COC(=O)[C@@]1(Sc2ccc(C)cc2)CC(=O)N[C@@H]1c1ccc(Br)cc1 | inconclusive [cytotoxic, single point] | 
70 | COc1ccc2nc(NC(=O)c3ccc4ncsc4c3)sc2c1 | inconclusive [cytotoxic, single point] | 
71 | COc1ccc(-c2cc(C(=O)N/N=C/c3cccnc3)c3cc(C)cc(C)c3n2)cc1 | inconclusive [cytotoxic, single point] | 
